In the antibiotic and cytotoxicity screens of Wong et al. (2023):
The list shows a part of the results.

Legend:
HSkMC = human skeletal muscle cells; assay: cytotoxicity call (relative viability < 0.9); details: 10 µM
HepG2 = assay: cytotoxicity call (relative viability < 0.9); details: 10 µM
S. aureus RN4220 = assay: growth inhibition call (relative growth <= 0.2); details: 50 µM

Row | Compound | cytotoxicity call (HSkMC) | cytotoxicity call (HepG2) | growth inhibition call (S. aureus RN4220)
1 | C=CC(C1=CC(=O)C(OC)=CC1=O)c1ccccc1 (stereo not given) | inactive | active | inactive
2 | O=C(/C=C/c1ccc(CNc2ccc([C@H]3O[C@@H](CSc4ccncc4)C[C@H](c4ccccc4)O3)cc2)cc1)NO | active | active | inactive
3 | CO[C@H]1CN(C)C(=O)c2ccc(NC(C)=O)cc2OC[C@H](C)N(S(=O)(=O)c2cn(C)cn2)C[C@H]1C | inactive | inactive | inactive
4 | CC(C)NC(=O)Nc1ccc2c(c1)C(=O)N([C@H](C)CO)C[C@@H](C)[C@H](CN(C)Cc1ccc(Cl)c(Cl)c1)OCCCC[C@H](C)O2 | inactive | inactive | inactive
5 | Cc1ccc(S(=O)(=O)Nc2ccc3c(c2)CC(=O)N([C@@H](C)CO)C[C@@H](C)[C@@H](CN(C)Cc2ccc(Oc4ccccc4)cc2)O3)cc1 | inactive | inactive | inactive
6 | C[C@@H]1CN([C@@H](C)CO)S(=O)(=O)c2ccc(-c3cccnc3)cc2O[C@@H]1CN(C)C(=O)c1ccc2c(c1)OCO2 | inactive | inactive | inactive
7 | CO[C@@H]1CN(C)C(=O)c2ccc(NC(=O)Nc3ccccc3Cl)cc2OC[C@@H](C)N(Cc2ccccc2C(=O)O)C[C@H]1C | inactive | inactive | inactive
8 | C[C@@H]1CN([C@H](C)CO)C(=O)Cc2cc(NC(=O)Nc3ccc(C(F)(F)F)cc3)ccc2O[C@@H]1CN(C)S(=O)(=O)c1ccc(Cl)cc1 | active | active | inactive
9 | CC(C)[C@@H](CO)N1C(=O)[C@@H]2[C@H]3C(=O)OCCC/C=C\[C@H]3O[C@]23C=CCN(c2ccc4ccccc4c2)C(=O)[C@@H]13 | inactive | inactive | inactive
10 | Cl.NC1CCN(c2c(F)cc3c(=O)c(C(=O)O)cn(C4CC4)c3c2Cl)C1 (stereo not given) | inactive | inactive | active
11 | COc1ccc2c3c([nH]c2c1)[C@@H](CO)N(C[C@]13CCN(CC1)C(=O)c1ccccc1F)C(=O)Nc1ccc(cc1)F | inactive | inactive | inactive
12 | C=CCNC(=O)[C@@H]1[C@H]2C(=O)O[C@H](c3ccccc3)[C@H](c3ccccc3)N2[C@H](c2ccc(OCCO)cc2)[C@@]12C(=O)N(C(=O)OCCOC)c1ccc(C#Cc3ccc(OC)cc3)cc12 | inactive | inactive | inactive
13 | COCC(=O)Nc1ccc2c(c1)C(=O)N(C)[C@H]1CC[C@H](CC(=O)NCc3ccccc3Cl)O[C@H]1CO2 | inactive | inactive | inactive
14 | Cc1noc(C)c1NC(=O)Nc1ccc2c(c1)CC(=O)N([C@@H](C)CO)C[C@@H](C)[C@@H](CN(C)S(=O)(=O)c1cn(C)cn1)O2 | inactive | inactive | inactive
15 | COCC(=O)Nc1ccc2c(c1)C(=O)N(C)[C@H]1CC[C@H](CC(=O)NCc3ccccc3Cl)O[C@@H]1CO2 | inactive | inactive | inactive
16 | COc1ccc(CN(C)C[C@@H]2Oc3ccc(NS(=O)(=O)c4c(C)noc4C)cc3C(=O)N([C@@H](C)CO)C[C@@H]2C)cc1 | inactive | inactive | inactive
17 | CC(C)(C)[S@@](=O)N1Cc2cc3nc(-c4cccc(Br)c4)c2[C@H]1CCOC(=O)c1cc2c(c(-c4cccc(Br)c4)n1)[C@@H](CCOC3=O)N([S@](=O)C(C)(C)C)C2 | inactive | inactive | inactive
18 | C[C@H]1CCCCO[C@H](CN(C)Cc2ccc(C(F)(F)F)cc2)[C@@H](C)CN([C@@H](C)CO)C(=O)c2cc(NS(C)(=O)=O)ccc2O1 | inactive | inactive | inactive
19 | Cc1noc(C)c1S(=O)(=O)N(C)C[C@H]1Oc2ccc(NS(=O)(=O)c3cn(C)cn3)cc2CC(=O)N([C@H](C)CO)C[C@@H]1C | inactive | inactive | inactive
20 | C[C@H](CO)N1C[C@H](C)[C@@H](CN(C)Cc2ccc3c(c2)OCO3)OCCCC[C@H](C)Oc2ccc(NS(=O)(=O)c3cccs3)cc2C1=O | inactive | inactive | inactive
21 | C[C@H]1CN([C@@H](C)CO)C(=O)c2cc(NS(=O)(=O)c3cn(C)cn3)ccc2O[C@H]1CN(C)C(=O)Nc1ccc2c(c1)OCO2 | inactive | inactive | inactive
22 | C[C@@H]1CN([C@@H](C)CO)C(=O)c2cc(NC(=O)NC3CCCCC3)ccc2O[C@@H](C)CCCCO[C@@H]1CN(C)C(=O)c1ccncc1 | inactive | inactive | inactive
23 | COc1cc2nc(N3CCN(C(=O)c4ccco4)CC3)nc(N)c2cc1OC.Cl | inactive | active | inactive
24 | Cc1noc(C)c1S(=O)(=O)Nc1ccc2c(c1)C(=O)N([C@H](C)CO)C[C@H](C)[C@H](CN(C)S(=O)(=O)c1ccccc1)O2 | inactive | inactive | inactive
25 | C[C@@H]1CCCCO[C@@H](CN(C)Cc2ccc(C(=O)O)cc2)[C@@H](C)CN([C@@H](C)CO)C(=O)c2cc(NC(=O)Nc3ccc(C(F)(F)F)cc3)ccc2O1 | inactive | inactive | inactive
26 | CN(C)CCCNC(=O)C[C@@H]1CC[C@@H]2[C@H](COC[C@H](O)CN2C(=O)Nc2cc(Cl)cc(Cl)c2)O1 | inactive | inactive | inactive
27 | Cc1ccc(S(=O)(=O)Nc2ccc3c(c2)C(=O)N([C@@H](C)CO)C[C@H](C)[C@H](CN(C)Cc2ccncc2)OCCCC[C@H](C)O3)cc1 | inactive | inactive | inactive
28 | Nc1cc(-c2ccccc2)ccc1O | inactive | inactive | inactive

Row | Compound | cytotoxicity call (HSkMC) | cytotoxicity call (HepG2) | growth inhibition call (S. aureus RN4220)
29 | C[C@H](CO)N1C[C@H](C)[C@@H](CN(C)Cc2ccc(Cl)c(Cl)c2)Oc2ccc(NC(=O)Nc3ccccc3)cc2C1=O | inactive | inactive | inactive
30 | Cc1ccc(S(=O)(=O)Nc2ccc3c(c2)C(=O)N([C@@H](C)CO)C[C@@H](C)[C@H](CN(C)CC2CCCCC2)OCCCC[C@@H](C)O3)cc1 | inactive | inactive | inactive
31 | CC(C)NC(=O)Nc1cccc2c1O[C@H](CN(C)Cc1ccc(C(=O)O)cc1)[C@@H](C)CN([C@H](C)CO)C2=O | inactive | inactive | inactive
32 | C[C@@H]1CCCCO[C@@H](CN(C)C(=O)CCC(F)(F)F)[C@@H](C)CN([C@@H](C)CO)C(=O)c2cc(NC(=O)C3CCCCC3)ccc2O1 | inactive | inactive | inactive
33 | NC(=O)c1ncn(C2OC(CO)C(O)C2O)c1O (stereo not given) | inactive | inactive | inactive
34 | C[C@H]1CCCCO[C@@H](CN(C)C(=O)NC2CCCCC2)[C@@H](C)CN([C@@H](C)CO)C(=O)c2cc(NS(=O)(=O)c3ccc(Cl)cc3)ccc2O1 | inactive | inactive | inactive
35 | C[C@H](CO)N1C[C@H](C)[C@H](CN(C)C(=O)Nc2cccc3ccccc23)Oc2c(NC(=O)c3ccc(-c4nccs4)cc3)cccc2C1=O | inactive | inactive | inactive
36 | Cc1ccc(S[C@]2(C(=O)NCc3ccccc3)CC(=O)N(C3CCCCC3)[C@@H]2c2ccc(CO)cc2I)cc1 | inactive | inactive | inactive
37 | C=CC[C@H](CC(=O)NCCO)C(=O)N[C@H](COC(=O)[C@@H](CC=C)CC(=O)OC(C)(C)C)Cc1c[nH]c2ccccc12 | inactive | inactive | inactive
38 | O=C(C[C@H]1C[C@@H]2c3cc(NS(=O)(=O)c4ccc(F)cc4)ccc3O[C@@H]2[C@@H](CO)O1)NCc1ccccn1 | inactive | inactive | inactive
39 | O=C(NCc1ccccc1)OCCO | inactive | inactive | inactive
40 | C[C@H](O)C#Cc1cnc2c(c1)C(=O)N([C@H](C)CO)C[C@H](C)[C@@H](CN(C)C(=O)CN1CCOCC1)O2 | inactive | inactive | inactive
41 | COCC(=O)N(C)C[C@@H]1Oc2cc(C#CCN(C)C)ccc2S(=O)(=O)N([C@H](C)CO)C[C@H]1C | inactive | inactive | inactive
42 | CC(C)(C)C(=O)N1CCNCC1 | inactive | inactive | inactive
43 | C[C@H]1CN([C@@H](C)CO)C(=O)Cc2cc(NS(C)(=O)=O)ccc2O[C@@H]1CN(C)C(=O)Nc1ccc2c(c1)OCO2 | inactive | inactive | inactive
44 | COc1cccc(S(=O)(=O)N[C@H]2C=C[C@H](CC(=O)NC3CCC3)O[C@H]2CO)c1 | inactive | inactive | inactive
45 | COC(=O)[C@H]1[C@H](CO)[C@H]2Cn3c(ccc(-c4cncnc4)c3=O)[C@H]2N1C(=O)C1CCC1 | inactive | inactive | inactive
46 | CN1CCCN(c2ccccc2CN)CC1 | inactive | inactive | inactive
47 | Cc1ccc(Cl)c(Nc2ccccc2C(=O)[O-])c1Cl.[Na+] | inactive | inactive | inactive
48 | COc1ccc(S(=O)(=O)N(C)C[C@@H]2Oc3c(NC(=O)Nc4c(C)noc4C)cccc3C(=O)N([C@@H](C)CO)C[C@H]2C)cc1 | inactive | inactive | inactive
49 | CS(=O)(=O)NCc1cnc2n1CCN(C[C@H]1CCOC1)CC2 | inactive | inactive | inactive
50 | Cc1ccc(S(=O)(=O)Nc2cccc3c2O[C@H](CN(C)S(=O)(=O)c2cn(C)cn2)[C@H](C)CN([C@H](C)CO)C3=O)cc1 | inactive | inactive | inactive
51 | C[C@@H]1CN([C@@H](C)CO)C(=O)c2c(c3ccccc3n2C)-c2ccccc2CO[C@@H]1CN(C)Cc1ccc(C(=O)O)cc1 | inactive | inactive | inactive
52 | C[C@H](CO)N1C[C@H](C)[C@H](CN(C)S(C)(=O)=O)Oc2c(NC(=O)Nc3ccc4c(c3)OCO4)cccc2C1=O | inactive | inactive | inactive
53 | CC(C)NC(=O)Nc1ccc2c(c1)C(=O)N([C@@H](C)CO)C[C@H](C)[C@@H](CN(C)S(=O)(=O)c1cn(C)cn1)OCCCC[C@@H](C)O2 | inactive | inactive | inactive
54 | Nc1ccccc1C(=O)CC(N)C(=O)O (stereo not given) | inactive | inactive | inactive
55 | CC(C)NC(=O)Nc1ccc2c(c1)C(=O)N([C@H](C)CO)C[C@H](C)[C@@H](CN(C)S(C)(=O)=O)OCCCC[C@@H](C)O2 | inactive | inactive | inactive
